About 540 (0.36%) of roughly 150,000 compounds showed an effect of 50% or more. The list shows a part of the results.

The test system of the assay is Plasmodium falciparum. Kind of assay: Primary screen in NF54 nanoGlo assay, in single point, at 2uM, 72h; a lower Z score goes with more inhibition. The class given is functional, Erythrocyte. Particulars: timepoint 72 hour.
Regarding `Cc1nn(C2CCS(=O)(=O)C2)c2c1C(c1ccc(Cl)cc1Cl)CC(O)=N2` (stereo not drawn), the “% Inhibition” value was -6% and the Z score was determined as 0.75.

For `O=C(C[C@H]1CCCO1)Nc1ccncc1F`, the “% Inhibition” value is -9% and the Z score is on record as 1.11.

As to `O=C(c1ccc(N2CCOCC2)nc1)N1CCC(c2c[nH]c3ccccc23)CC1`, the “% Inhibition” value was -1% and the Z score is 0.16.

With `C[C@H]1c2ccccc2CCN1C(=O)CCn1nnc2ccccc2c1=O`, the “% Inhibition” value is -11% and the Z score is listed as 1.73.

As for `Cc1ccc(CC(=O)NC(C)(C)C)cc1`, the “% Inhibition” value is given as 9% and the Z score was -1.32.

Take `Cc1ccc(S(=O)(=O)[C@H]2CS(=O)(=O)C[C@@H]2NCCC(C)C)cc1`: the “% Inhibition” value came out at 8% and the Z score is -1.05.

Consider `C#CCN(C(=O)CC1C=CCC1)C1CCS(=O)(=O)C1` (stereo not drawn), for which the “% Inhibition” value is -4% and the Z score was found to be 0.49.

Consider `COc1ccc(C(=O)NCc2ccc3c(c2)OCO3)nn1`, for which the “% Inhibition” value is -2% and the Z score was found to be 0.3.

`CCC(C)[C@H](NC(=O)N1CCCC1)C(=O)N1CCC2(CC1)NC(=O)CO2` (stereo partly drawn): the “% Inhibition” value was determined as 1% and the Z score is recorded as -0.18.

On to `O=C(c1ccco1)N(c1ccccc1F)C1CCCC1`, for which the “% Inhibition” value is given as -8% and the Z score is on record as 1.

As for `CC(C(=O)NC1CC1c1ccccc1C(F)(F)F)n1cncn1` (stereo not drawn), the “% Inhibition” value is given as -1% and the Z score amounted to 0.13.

Take `FC(F)(F)Cn1nc(C2CC2)nc1CCc1ccncc1`: the “% Inhibition” value is recorded as 2% and the Z score was -0.35.

With `Cc1nc(-c2ccc(Cl)c(S(=O)(=O)N3CCC(C(=O)NCc4ccccc4)CC3)c2)no1`, the “% Inhibition” value was -6% and the Z score was determined as 0.78.

With `COc1ccc(C)cc1NC(=O)c1csc(Nc2ncccn2)n1`, the “% Inhibition” value is given as -2% and the Z score came out at 0.46.

Turning to `Cc1nc(Cn2nc(C)c(CCO)c2C)cs1`, the “% Inhibition” value is recorded as -7% and the Z score is listed as 0.74.

`CC(C)C(=O)Nc1ccccc1NC(=O)OC(C)(C)C`: the “% Inhibition” value is -9% and the Z score turned out to be 1.65.

Consider `O=C(Cn1cnc(C(F)F)cc1=O)N1CCOC2CCCCC21` (stereo not drawn), for which the “% Inhibition” value worked out at 1% and the Z score was -0.24.

In the case of `CCCc1nc(CN(C)Cc2nccc(OC)c2OC)no1`, the “% Inhibition” value turned out to be 9% and the Z score is listed as -1.41.

Turning to `CN1C(=O)CCC(C(=O)N2CCN(c3ccccc3)CC2)C1c1cccc(F)c1` (stereo not drawn), the “% Inhibition” value is reported as 2% and the Z score was -0.24.

For `O=C(O)C[C@@H]1CN(C(=O)CCOc2ccccc2)C[C@@H]1c1c[nH]nn1`, the “% Inhibition” value was 3% and the Z score is -0.44.

For the compound `Cn1cc(C2=CC(c3ccccc3)=NN=C(c3ccccc3)C2)c2ccccc21`, the “% Inhibition” value is 1% and the Z score was -0.29.

On to `CC(C)c1cc(C(=O)N2CC3CC4CC3C2C4O)n[nH]1` (stereo not drawn), for which the “% Inhibition” value is recorded as 35% and the Z score is recorded as -1.16.

Turning to `C=C(C)COc1ccc(NC(=O)C[C@H]2CCCOC2)cc1`, the “% Inhibition” value stood at 7% and the Z score was -1.25.

Turning to `Cc1cc(C2(NC(=O)Nc3nn(C)cc3C)CCOCC2)on1`, the “% Inhibition” value was -6% and the Z score is recorded as 0.91.

The values above are taken from ChEMBL document CHEMBL4888484, “Replenishing the malaria drug discovery pipeline: Screening and hit evaluation of the MMV Hit Generation Library 1 (HGL1) against asexual blood stage Plasmodium falciparum ,using a nano luciferase reporter read-out” (2022).
